# Assay results: the supplement of paper PMC3334620
# The full ranking holds about 33,000 sequences; the median of “E-score (-0.5 to 0.5)” is about -0.013, and the highest 2% start at about 0.3. The list shows a part of the results.
# Target: T1, Msn1 (UniProt P22148)
# T1 sequence: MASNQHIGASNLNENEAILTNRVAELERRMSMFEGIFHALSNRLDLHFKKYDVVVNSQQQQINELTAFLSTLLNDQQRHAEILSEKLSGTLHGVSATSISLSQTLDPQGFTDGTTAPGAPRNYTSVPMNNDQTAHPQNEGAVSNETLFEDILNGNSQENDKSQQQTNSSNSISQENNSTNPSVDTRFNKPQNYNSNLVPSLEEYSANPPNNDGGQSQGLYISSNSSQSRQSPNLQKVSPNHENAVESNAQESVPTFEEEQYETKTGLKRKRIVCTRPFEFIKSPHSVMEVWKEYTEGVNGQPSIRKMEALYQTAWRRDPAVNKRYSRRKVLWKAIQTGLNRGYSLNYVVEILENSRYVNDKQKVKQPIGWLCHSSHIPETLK
# Experiment: PBM E-score (8-mer binding enrichment) (E-score (-0.5 to 0.5)); higher = stronger / more preferred TF binding; most listed sequences are background and not binding sites
# Conditions: protein concentration: 200 nM; construct: GST-full length
# Outline: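 Masliner-normalised scans of fluorescent anti-GST signal were the basis for scoring. That signal came from GST-tagged yeast transcription factors applied at about 100-200 nM to double-stranded universal all-10-mer Agilent arrays on fresh or once-stripped slides. Each ungapped eight-base word, pooled with its reverse complement, received an E-score from the Universal PBM Analysis Suite.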
row,Sequence,PBM E-score
1,ATGACCAT,0.0751
2,CTGCATGA,-0.221
3,AACGACGT,0.0913
4,CACGAAGG,-0.0904
5,AACGCCAT,-0.0232
6,CCAACGCG,0.0849
7,CATTGACA,-0.0376
8,AGTATATG,0.0831
9,CGCCCGGC,-0.155
10,AGGGCGTG,0.00236
11,CCCTCGTA,-0.185
12,GGAACCGA,-0.00407
13,CGTGTATC,-0.0252
14,CCCCCTAC,-0.362
15,CCAATGAA,-0.114
16,ATATAGTC,0.101
17,ACCACTGA,-0.113
18,ACACCCGA,0.189
19,ATGAAATC,0.115
20,GGAGTACC,-0.245
21,AAGATTCC,0.0923
22,GCTGAACC,-0.0307

row,Sequence,PBM E-score
1,ACCAAGAT,-0.0621
2,AGTGAAGG,-0.108
3,ACCGTATG,-0.0372
4,CCACCAAA,-0.132
5,CCCATTAC,-0.158
6,GGGCCGAC,-0.102
7,GATACTGA,0.0464
8,GCTGCTAC,-0.214
9,CCATCTAG,-0.156
10,CGTTTACA,-0.0428
11,CTTGCTAA,-0.158
12,ACTCGGCG,0.165
13,CCATTCAC,-0.0289
14,AAAACCCT,-0.0857
15,CCGGGGCA,-0.2
16,CCATGGGA,-0.123
17,AGCCCCAT,-0.153
18,CTTCCGTC,0.00904
19,CATGAGAA,0.117
20,CCTGGGTA,-0.231
21,ACCAACCA,-0.0389
22,CAGGGACC,-0.273

row,Sequence,PBM E-score
1,CGTCGTTC,0.12
2,GCTGAGCC,-0.172
3,AAGAAAGG,-0.0965
4,AGCTTCAG,-0.165
5,AGAAAATG,0.15
6,CATGCGAG,-0.13
7,ATCGAAGC,-0.0811
8,ACAGGGAT,-0.147
9,CACACCGA,0.00524
10,ACATAACT,0.105
11,GGTTGACA,0.0242
12,CAGGTAAA,0.141
13,GTAGACAC,0.0944
14,ACCGATGC,-0.136
15,CAAGAGCG,-0.0817
16,CCTGGGGA,-0.402
17,ATGACTAA,-0.0221
18,GAATGCGC,0.0658
19,CGGTGTGA,0.0978
20,ATTGCCAA,-0.0368
21,AGAGCGGC,-0.219
22,ATATGATC,0.215

row,Sequence,PBM E-score
1,GCCAAAGA,-0.154
2,GTGAAGCA,-0.145
3,ACAGGCAA,0.188
4,CATAGGGC,-0.182
5,GACGGGTA,-0.204
6,CATTCAGG,0.00579
7,AATGTGGA,0.132
8,ATAGGACC,-0.11
9,AATATGGT,0.134
10,AAACGCCA,0.165
11,CTTGTGAA,-0.152
12,AACGTCAA,0.162
13,CGTAGTCC,-0.106
14,AAGGTGCA,-0.0362
15,AAGGAAAG,-0.204
16,CCCTTATA,-0.0141
17,CTCAAGTC,-0.105
18,AACGGGGC,-0.154
19,GATTGATA,0.0851
20,AGATTCGA,0.0206
